From ChEMBL document CHEMBL4888484, “Replenishing the malaria drug discovery pipeline: Screening and hit evaluation of the MMV Hit Generation Library 1 (HGL1) against asexual blood stage Plasmodium falciparum ,using a nano luciferase reporter read-out” (2022) come the findings set out here.

For this test, the system named is Plasmodium falciparum. Kind of test: Primary screen in NF54 nanoGlo assay, in single point, at 2uM, 72h; a lower Z score goes with more inhibition. The class given is functional, Erythrocyte. Particulars: timepoint 72 hour.

Several values for one entry are separate records, joined by “and”; a condition that tells them apart may be missing. Identical values can stand only once. The campaign covered roughly 150,000 compounds. About 540 (0.36%) showed an effect of 50% or more. The list shows a part of the results.

As a reminder, the % Inhibition is the relative decrease from the control value, in per cent. `COc1ccc(CN2C(=O)[C@@H]3C[C@@H](CN3C3CCC3)Oc3ccccc32)cc1`: the “% Inhibition” value worked out at 15% and the Z score was -1.78.
The like results for `c1ccc(Cn2c(-c3ccccc3)nc3cccnc32)cc1` were, in that order, -12% and 1.59.
For `O=C(C[C@H](c1cccc(C(F)(F)F)c1)c1cnc2ccc(Cl)cn12)NC(c1ccccc1)c1ccccc1`, the “% Inhibition” value was -10% and the Z score worked out at 1.34.
The like results for `O=C(Cc1cc2ccccc2s1)N1CCC(OCCO)CC1` were, in that order, 15% and -1.89.
The like results for `Cn1nc(C(=O)Nc2ccc3c(c2)OCCO3)ccc1=O` were, in that order, -5% and 0.7.
The like results for `Cn1c(C(=O)N2CCC[C@H]2c2ccc(Cl)cc2)cccc1=O` were, in that order, -8% and 1.05.
Consider `O=C(c1cc(-c2ccco2)[nH]n1)N1C[C@@H]2CCS(=O)(=O)[C@@H]2C1`, for which the “% Inhibition” value is listed as 29% and the Z score is listed as -3.24.
With `CC(CNC(=O)C1CN2CC3CC2(CO1)C3)COCc1ccccc1` (stereo not drawn), the “% Inhibition” value is reported as -9% and the Z score came out at 0.93.
The like results for `O=C(NCC1(c2ccccc2)CC1)c1ocnc1C(F)(F)F` were, in that order, -8% and 1.43.
With `CN(C)C(=O)c1cn[nH]c1-c1ccc(S(=O)(=O)Nc2ccc(OC(F)(F)F)cc2)o1`, the “% Inhibition” value is 2% and the Z score is reported as -0.22.
The like results for `Cc1ccc(-c2nsc(NC(=O)c3oc4ccccc4c3C)n2)o1` were, in that order, 5% and -0.49.
The like results for `COc1cccc(N2C[C@H](Cc3ccccc3)N(C(=O)C(C)(C)C)CC2=O)c1` were, in that order, 10% and -1.29.
The like results for `CCCc1nnc(NC(=O)CCOCC)s1` were, in that order, -4% and 0.75.
`CCc1nc(CNc2cccc(S(=O)(=O)N3CCCCC3)c2)n[nH]1`: the “% Inhibition” value was -2% and the Z score was 0.21.
The like results for `CN(C)c1ccc(C(=O)N2CCN(c3ccc(F)cc3)CC2)cn1` were, in that order, -5% and 0.48.
The like results for `COC(=O)c1cc(C2CC2)nc2c1c(=O)n(Cc1cccc(C)c1)c(=O)n2-c1ccccc1OC` were, in that order, -3% and 0.36.
The like results for `COc1ccccc1-c1cc(C(=O)NCc2ccc(C)cc2)c2c(-c3ccccc3)[nH]nc2n1` were, in that order, 4% and -0.56.
On to `O=C(O)[C@@H]1CCCN1C(=O)[C@@H]1CCCN1C(=O)[C@H](Cc1ccccc1)n1c(=O)[nH]c2ccccc2c1=O`, for which, for the setting “2 µM”, the “% Inhibition” value is -11% and -5%; the Z score is 1.4 and 0.64.
For `O=C(CCCC1CCOCC1)NCc1cccc(-c2ncc[nH]2)c1`, the “% Inhibition” value worked out at 5% and the Z score is -0.88.
The like results for `COCCN1C[C@]2(CCCN(C(=O)CN(C)c3ccccc3)C2)CCC1=O` were, in that order, -6% and 1.27.
The like results for `O=C(c1ccc(Cl)cn1)N1CCc2nocc2C1` were, in that order, -29% and 2.52.
The like results for `CN1CCN([C@H]2CCN(Cc3ccc4ccn(C)c4c3)C[C@H]2CCCO)CC1` were, in that order, -1% and 0.1.
For the compound `CCC(=O)NC[C@@H](CO)Cc1cc(Br)ccc1OC`, the “% Inhibition” value worked out at 17% and the Z score was -3.1.
Turning to `N#CC1(C(=O)N2Cc3ccccc3C2)CCCC1`, the “% Inhibition” value was -15% and the Z score was 1.72.
Take `Cc1ccc(Cl)c(S(=O)(=O)N[C@@H](C)c2nccs2)c1`: the “% Inhibition” value is listed as -6% and the Z score is listed as 0.8.
The like results for `C[C@@H](c1cccnc1)N(C)CC(=O)N1CCNC1=O` were, in that order, 1% and -0.17.
Turning to `COc1ccc(S(=O)(=O)C2CN(C(C)=O)C2)cc1`, the “% Inhibition” value was -17% and the Z score stood at 2.16.
The like results for `CC(C)CC(=O)N(Cc1c(-c2ccccc2F)noc1N1CCOCC1)C[C@H]1CCCO1` were, in that order, 6% and -0.69.
The like results for `O=C1CN(Cc2ccccc2O)C(=O)N1c1ccncc1` were, in that order, -1% and 0.06.
The like results for `CCCCc1ccc(-n2c(NS(=O)(=O)c3ccc(Cl)cc3)c(S(=O)(=O)c3ccc(C)cc3)c3nc4ccccc4nc32)cc1` were, in that order, 4% and -0.41.
Take `O=C(Cn1cnnn1)N1CCc2ccccc2C1`: the “% Inhibition” value is given as 0% and the Z score amounted to 0.03.
The like results for `O=C1CCC2(CCN(C(=O)c3ncccc3O)CC2)CN1CCc1ccncc1` were, in that order, -6% and 0.73.
Consider `Fc1cc(-c2cn(CCOc3ccccc3)nn2)cc(F)c1F`, for which the “% Inhibition” value was -13% and the Z score is listed as 2.59.
The like results for `CCn1cc(C(=O)NC[C@H]2CCN(Cc3sccc3C)C2)cn1` were, in that order, 2% and -0.35.
For `Cc1nc(NC(=O)c2cc3ccccc3cc2OC(F)F)nn1C`, the “% Inhibition” value is listed as -1% and the Z score is listed as 0.22.
Consider `CCc1nnc(NC(=O)NC2CCOC(c3ccccc3)C2)s1` (stereo not drawn), for which the “% Inhibition” value was -9% and the Z score worked out at 1.21.
The like results for `Cc1noc(C)c1CCNC(=O)c1cc2n(n1)C[C@@](C)(C(=O)NCc1ccc(F)cc1)N(C)C2=O` were, in that order, -5% and 0.81.
The like results for `COc1ccc(NC(=O)[C@@H]2CC[C@H](NC(=O)Cc3ccncc3)C2)cn1` were, in that order, -4% and 0.81.
In the case of `O=C(Nc1ccccc1OC[C@H]1CCCO1)c1cc(=O)nc2sccn12`, the “% Inhibition” value is given as -11% and the Z score worked out at 1.47.
The like results for `COc1ccccc1OC[C@H](C)NC(=O)NC1(C)CCC1` were, in that order, -4% and 0.84.
The like results for `CN(Cc1cccnc1)[C@@H](C(=O)O)c1ccc(NC(=O)N2CCCC2)cc1` were, in that order, -2% and 0.3.
The like results for `O=C(O)C[C@H](NC(=O)CCc1ccccc1Cl)C1CC1` were, in that order, -6% and 0.86.
Regarding `CS(=O)(=O)CCOc1ccc(Cl)cc1N`, the “% Inhibition” value turned out to be 11% and the Z score is -1.39.
The like results for `CNC(=O)[C@@H]1CN(C(=O)c2ccc(Cl)s2)C[C@H]1c1nc(COC)no1` were, in that order, -9% and 1.38.
The like results for `COc1ccc(-c2cc(-c3ccc(Cl)cc3)nc3c(C(=O)Nc4ccc(F)cc4)cnn23)cc1` were, in that order, -3% and 0.38.
`CC(C)(C)OC(=O)N1CC(CNCc2ccc(Cl)c(Cl)c2)C1`: the “% Inhibition” value is on record as 6% and the Z score is reported as -0.58.
The like results for `Cc1ccc(N(C)C(C)C)c(C(=O)NC[C@H]2CCC3(CCOCC3)O2)c1` were, in that order, -1% and 0.19.
The like results for `CN(CC(=O)NC1CCCCCC1)Cc1cnn(C)c1` were, in that order, -8% and 1.15.
Take `CS(=O)(=O)CC1(CO[C@H]2CCCc3c[nH]nc32)CC1`: the “% Inhibition” value is -14% and the Z score is reported as 1.54.
The like results for `COc1ccc(C(C)(C)C)cc1S(=O)(=O)NC(C)C` were, in that order, -9% and 1.47.
On to `COCCN1CCC[C@@](O)(CN2CCc3[nH]c4c(C)cccc4c3C2)C1=O`, for which the “% Inhibition” value is 0% and the Z score was found to be 0.
The like results for `CCC(=O)N1CCN(C(=O)OC(C)(C)C)[C@@H](C)C1` were, in that order, -11% and 1.58.
As for `Cc1ccc2c(Nc3cccc(Cl)c3)c(C(=O)N3CCOCC3)cnc2n1`, the “% Inhibition” value is -2% and the Z score was found to be 0.25.
Regarding `C=CCn1cc(CN[C@@H](C)CCc2ccco2)c(C)n1`, the “% Inhibition” value is on record as -1% and the Z score is given as 0.11.
The like results for `CC(C)c1nnc(CNC(C)(C)c2ccc(F)cc2)o1` were, in that order, -2% and 0.47.
The like results for `O=C(c1ccncc1F)N1CC2CC1CO2` (stereo not drawn) were, in that order, -9% and 1.63.
The like results for `CS(=O)(=O)CCCC(=O)N1CCOc2ccccc2[C@@H]1CO` were, in that order, 9% and -1.61.
Take `Cc1cccnc1CN1CCC[C@H](N(C)Cc2ncccc2C)CC1`: the “% Inhibition” value was 1% and the Z score is reported as -0.14.
For the compound `O=C(O)C1CCN(C(=O)C2CCCc3ccccc32)C1` (stereo not drawn), the “% Inhibition” value came to 1% and the Z score is -0.08.
Regarding `O=C1N[C@@H](CC(=O)N2CCN(S(=O)(=O)N3CCCCCC3)CC2)C(=O)Nc2ccccc21`, the “% Inhibition” value is listed as -7% and the Z score is recorded as 0.96.
The like results for `CCNC(=O)[C@H](C)NS(=O)(=O)c1csnc1-c1ccccc1` were, in that order, 8% and -0.92.
For `CCc1noc([C@H](C)N(C)Cc2nc3ccccc3s2)n1`, the “% Inhibition” value is -15% and the Z score is reported as 1.92.
The like results for `CCc1ccc(CNC(=O)c2ccc(-c3nc(CCN(C)C(=O)Nc4cccc(C)c4)no3)cc2)cc1` were, in that order, 7% and -0.73.
The like results for `COC1CCN(C(=O)CCc2c(C)[nH]c(=O)c(C#N)c2C)CC1` were, in that order, -3% and 0.24.
Turning to `Cc1cc(C(=O)NCC2(c3ccccc3)CC2)n(C)n1`, the “% Inhibition” value is 7% and the Z score was -0.66.
The like results for `Cc1ccc(C)c(-c2cnc3sc(C)nc3c2)c1` were, in that order, -5% and 0.68.
The like results for `CCC(CC)n1ncc(C)c1NC(=O)N(C)CC1(CO)CCOCC1` were, in that order, -18% and 1.98.
The like results for `Cc1nc(O)cc(C2CCN(C(=O)Nc3ccc4c(c3)C[C@H](C)O4)CC2)n1` were, in that order, 1% and -0.14.
With `O=C(Cn1cc2c(n1)CCCCC2)NCCc1ccc(Cl)cc1`, the “% Inhibition” value was -12% and the Z score came out at 2.35.
The like results for `O=S(=O)(Cc1ccccc1)N(O)c1ccccc1` were, in that order, 22% and -2.51.
The like results for `CC(C)[C@H](NCCC(=O)c1ccc(Br)cc1)C(=O)O` were, in that order, -13% and 2.47.
The like results for `Cc1[nH]ncc1CCCN[C@H]1CCCCC12CCCCC2` were, in that order, 0% and 0.02.
As for `NC(=O)N1CCCN(c2nccc3cc(C(F)(F)F)ccc23)CC1`, the “% Inhibition” value is -5% and the Z score was 0.88.
The like results for `Cc1ccc(C(=O)N[C@H]2CC(=O)N(Cc3cccc4ccccc34)C2)c(=O)[nH]1` were, in that order, 1% and -0.19.
The like results for `Cc1cccn2c(=O)cc(COc3ccccc3)nc12` were, in that order, -10% and 1.4.
Take `CN(C)S(=O)(=O)N1CCC2(CC1)OC(=O)c1ccccc12`: the “% Inhibition” value is listed as -13% and the Z score was 1.62.
The like results for `Cc1nn(C(F)F)cc1-c1ccc(C(=O)N[C@H]2CCCC[C@@H]2O)cc1` were, in that order, 1% and -0.28.
Take `CCN(C(=O)c1cc(Br)c[nH]1)c1ccc(OC)nc1`: the “% Inhibition” value is on record as 1% and the Z score is given as -0.18.
The like results for `Cc1noc(C2CCN(C(C)c3ncc(C)o3)C2)n1` (stereo not drawn) were, in that order, -19% and 3.76.
The like results for `CC(C)(C)N(CC(N)=O)CC(=O)NC(=O)NC1CCCCC1` were, in that order, 31% and -0.73.
For the compound `O=C(c1c[nH]c2ccccc12)C(O)C(c1ccccc1)N1CCN(c2ccccc2)CC1` (stereo not drawn), the “% Inhibition” value is -9% and the Z score stood at 1.02.
The like results for `CC(=O)c1cccc(OS(=O)(=O)c2ccc(N3CCCC3=O)cc2)c1` were, in that order, 5% and -0.69.
The like results for `CCNC(=O)[C@H]1CCN(c2noc(CC)n2)C1` were, in that order, 4% and -0.51.
For `CN(CCCN1CCOCC1)S(=O)(=O)c1cccnc1`, the “% Inhibition” value is recorded as -15% and the Z score turned out to be 1.96.
